# The supplement of paper PMC3334620
# Whole data set: some 33,000 sequences, median “E-score (-0.5 to 0.5)” near -0.036, cut for the highest 2% near 0.37. The list shows a part of the results.
# Target: T1, Yer064c (UniProt P40041)
# T1 sequence: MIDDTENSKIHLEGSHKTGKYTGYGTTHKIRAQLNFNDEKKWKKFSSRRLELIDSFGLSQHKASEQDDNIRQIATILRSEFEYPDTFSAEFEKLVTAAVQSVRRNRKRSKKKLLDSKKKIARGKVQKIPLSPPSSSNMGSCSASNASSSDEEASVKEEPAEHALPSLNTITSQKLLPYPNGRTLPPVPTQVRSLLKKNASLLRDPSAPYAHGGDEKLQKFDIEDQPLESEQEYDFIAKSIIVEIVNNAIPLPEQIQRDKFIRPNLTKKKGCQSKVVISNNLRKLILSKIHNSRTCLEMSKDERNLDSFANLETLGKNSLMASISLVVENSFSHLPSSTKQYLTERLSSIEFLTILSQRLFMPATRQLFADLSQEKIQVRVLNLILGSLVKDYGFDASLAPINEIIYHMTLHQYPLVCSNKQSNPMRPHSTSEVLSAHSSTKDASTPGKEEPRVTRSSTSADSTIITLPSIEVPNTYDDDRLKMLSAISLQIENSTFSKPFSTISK
# Assay: PBM E-score (8-mer binding enrichment) (E-score (-0.5 to 0.5)); higher = stronger / more preferred TF binding; most listed sequences are background and not binding sites
# Conditions: protein concentration: 200 nM; construct: GST-full length
# Procedure, shortened: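 Detection of bound protein used fluorescent anti-GST, with scans normalised by masliner. The proteins were GST-tagged yeast transcription factors applied at about 100-200 nM to universal all-10-mer Agilent arrays made double-stranded by primer extension. Each ungapped eight-base word, pooled with its reverse complement, was scored with an E-score from the Universal PBM Analysis Suite.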
row,Sequence,PBM E-score
1,CGAAGATC,-0.0635
2,CGTCCATC,-0.102
3,TGACTAAA,0.484
4,CTTGATGA,0.28
5,CTAAATAC,0.0883
6,TAACCAAA,0.0296
7,TGGGCCCA,-0.123
8,ACTAGGTA,0.247
9,CCGACATA,0.0252
10,AAAAGGCT,-0.0897
11,ACATTGCT,-0.14
12,CGGTCCTA,-0.132
13,TGGGGAAA,0.00957
14,CTTGTTGA,0.228
15,AATTCTAA,0.00551
16,AAACATCG,-0.0777
17,CAGCATAA,-0.028
18,CATAAAAA,0.171
19,CCTAAATC,0.167
20,GGATTCAA,0.18
21,GACGAGGC,-0.209
22,TAGCCACA,0.14

row,Sequence,PBM E-score
1,TCTTCCAA,0.0579
2,AACACCTT,-0.083
3,AGTAGACT,0.208
4,GACGTTCC,-0.347
5,ATAGGTTA,-0.0944
6,GAATACTA,0.0512
7,AATCCGTG,-0.191
8,CAGGAGAA,0.0117
9,CGTGCGGA,0.0369
10,CTAGGTTC,-0.261
11,CACAGATG,-0.0412
12,GGTACACA,0.0651
13,CCTGTGAG,0.106
14,GAACCGGC,-0.259
15,CCTTATCA,0.0682
16,ACACCGCG,-0.216
17,ACATTCTC,0.0935
18,ACCCAGAC,-0.0338
19,GCCCATCC,-0.0789
20,AATCGGCT,0.0116
21,CTTATTAA,0.0408
22,CAAAGTTC,-0.253

row,Sequence,PBM E-score
1,CAGGGCAG,0.0496
2,AGTATTCG,-0.0987
3,CATTGTGC,-0.123
4,CGGCGGCC,-0.0839
5,TACTAACA,0.0931
6,CAGGAATC,0.313
7,TATAATGA,0.256
8,CGTATCCC,-0.26
9,ATTAAGTG,0.167
10,GGTTCAAA,0.104
11,CGCACCAG,0.0347
12,AGAACCAG,-0.126
13,GCGCCACC,-0.247
14,GCGCGGGA,-0.0795
15,ATTTCATC,0.0085
16,GCGTTACA,-0.0732
17,GCAGCAGA,-0.104
18,ATCTGTGG,-0.128
19,AGTACTTC,0.174
20,GCCCTGTA,-0.0987
21,GTTTTCTA,-0.0628
22,ATAATCCG,0.128

row,Sequence,PBM E-score
1,GCAAAAAA,-0.0402
2,ATTCCGGA,-0.0513
3,GAAAAAGA,0.0806
4,CCTTGGCC,-0.359
5,CAGAGGAG,-0.025
6,CAACGCTC,-0.136
7,GCGTTTCC,-0.283
8,AGTCGTAG,0.406
9,GCATATTA,-0.00511
10,GTACGTCA,-0.0319
11,AGCGTGAT,0.278
12,GAGTTCTA,0.0136
13,ATGATTCG,0.437
14,CTACCTTA,0.0146
15,TACAGGAA,-0.0268
16,CCTTTCAC,-0.187
17,ATTGGCCG,-0.162
18,CAGACGCC,-0.187
19,GCGTTCCA,-0.187
20,ATTTGCAG,-0.0944
21,AGGCGAAG,-0.0366
22,CCGCCCAA,-0.207

row,Sequence,PBM E-score
1,GGCACAAC,0.0273
2,CAAAGGTA,0.0773
3,TGTTCCAA,0.0885
4,ACTACTGC,0.0248
5,CCTCACAC,-0.0666
6,GCATGAGA,0.105
7,ACATTGAC,0.154
8,CCAACTCA,0.177
9,GTTCCTAA,0.117
10,CGAGCTCC,-0.122
11,AGGGGTGA,0.123
12,CAAACGGG,-0.164
13,CTCGCTGA,-0.0819
14,GCGTAAAC,-0.0466
15,GAACCGTA,-0.0645
16,CCGCAGCG,0.0625
17,ACTTTGGC,-0.0333
18,ACTATCGA,0.0488
19,ATAAAACG,-0.0532
20,ATCCGTGG,-0.291
21,GATATGGA,-0.00211
